# Source: PubChem BioAssay AID488969 (Vanderbilt High Throughput Screening Facility, 2010)
# Whole data set: some 110,000 compounds, median “z-score” near -0.1, cut for the highest 2% near 2. The list shows a part of the results.
# Target: Metabotropic glutamate receptor 8 (Rattus norvegicus) (UniProt P70579)
# Test: mGluR8 Gi/Go-coupled signaling modulation – cell-based, rat, thallium flux, HTS, primary screen (AID 488969)
# Conditions: HEK293 rat mGluR8, GIRK (G protein-gated inwardly rectifying potassium channel) thallium flux, FluoZin2; at 10 µM; stronger effect = higher value; submaximal glutamate (EC20) added with thallium
# UniProt P70579, sequence (P70579 whole entry, looked up): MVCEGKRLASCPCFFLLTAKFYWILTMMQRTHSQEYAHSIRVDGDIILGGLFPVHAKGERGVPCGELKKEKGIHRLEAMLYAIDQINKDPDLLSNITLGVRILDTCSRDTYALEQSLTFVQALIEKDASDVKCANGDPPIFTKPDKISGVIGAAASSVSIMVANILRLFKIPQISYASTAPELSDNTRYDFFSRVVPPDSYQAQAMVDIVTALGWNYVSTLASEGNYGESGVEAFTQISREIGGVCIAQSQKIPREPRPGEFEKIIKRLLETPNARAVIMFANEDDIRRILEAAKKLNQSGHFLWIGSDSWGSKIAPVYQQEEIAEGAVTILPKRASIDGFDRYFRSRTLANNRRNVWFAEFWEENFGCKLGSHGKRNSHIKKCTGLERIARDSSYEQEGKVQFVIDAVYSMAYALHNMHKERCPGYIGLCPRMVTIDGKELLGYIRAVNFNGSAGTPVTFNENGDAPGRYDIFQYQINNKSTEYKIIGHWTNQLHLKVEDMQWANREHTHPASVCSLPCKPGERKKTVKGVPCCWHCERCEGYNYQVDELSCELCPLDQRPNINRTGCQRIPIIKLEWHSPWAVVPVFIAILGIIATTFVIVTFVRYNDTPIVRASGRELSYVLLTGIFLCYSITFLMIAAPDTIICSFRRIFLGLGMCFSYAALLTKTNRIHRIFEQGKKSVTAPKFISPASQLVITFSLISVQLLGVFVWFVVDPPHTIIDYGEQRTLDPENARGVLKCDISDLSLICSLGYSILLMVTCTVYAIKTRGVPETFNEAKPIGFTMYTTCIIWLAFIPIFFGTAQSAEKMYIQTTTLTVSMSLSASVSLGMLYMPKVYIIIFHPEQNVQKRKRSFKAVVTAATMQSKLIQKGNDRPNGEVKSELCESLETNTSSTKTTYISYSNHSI
row,SMILES,z-score
1,COc1ccc(-c2nc(CS(=O)CC(=O)NCCCN3CC(C)CC(C)C3)c(C)o2)cc1OC (stereo unspecified),0.621
2,COC(=O)c1c(NC(NC(=O)CC(C)C)C(Cl)(Cl)Cl)sc2c1CCC2 (stereo unspecified),0.202
3,CCOC(=O)C1CCCN(C(=O)c2ccc3c(c2)OCO3)C1 (stereo unspecified),-0.377
4,CN1CCN(C(=O)c2ccc(CSc3ccc(Cl)cc3)cc2)CC1,-0.427
5,COc1ccc(N2C(=O)C(CC(=O)Nc3ccc(F)cc3)N(CCc3cccs3)C2=O)cc1 (stereo unspecified),0.0987
6,N#Cc1c(NCCCO)nc(-c2ccccc2)c2c1CCCC2,-0.249
7,CC1CCCN(S(=O)(=O)c2ccc(NC(=O)Cn3nnc(-c4ccccc4F)n3)cc2)C1 (stereo unspecified),-0.447
8,COc1ccc(/C=C/C(=O)N2CCC(c3ccccc3)C2)cc1 (stereo unspecified),-0.418
9,CCOCCCNC(=O)c1[nH]c(C)c(C(C)=O)c1C,1.3
10,N#Cc1ccc(NC(=O)COC(=O)CCNS(=O)(=O)c2ccccc2)cc1,-0.505
11,O=[N+]([O-])c1ccc(N2CCN(S(=O)(=O)c3ccc(Cl)cc3)CC2)cc1NCc1cccnc1,-0.148
12,FC(F)(F)c1ccc(Cl)c(NC(=S)N/N=C/c2ccccc2C(F)(F)F)c1,1.14
13,Cc1cc2cc(C(c3nnnn3C(C)(C)C)N(Cc3ccco3)CC3CCCO3)c(=O)[nH]c2cc1C (stereo unspecified),-0.208
14,OC(CNCc1ccccc1)(c1ccc(F)cc1)c1ccc(F)cc1,-0.0331
15,O=C(CCC(=O)OCC(=O)c1ccc(-c2ccccc2)cc1)Nc1cccc2cccnc12,-0.0975
16,COc1cc(/C=N/Nc2nc3ccccc3o2)cc(OC)c1O,0.336
17,Cc1ccc2cc(C#N)c(SCC(=O)NCc3ccco3)nc2c1,-0.492
18,Cc1cc(C(=O)CN2CCCC(C)C2)c(C)n1-c1ccc(F)cc1 (stereo unspecified),0.291
19,CC(C)CNC(=O)CCCc1c[nH]c2ccccc12,-0.801
20,CCC(C)NC(=O)C1CCCN(S(=O)(=O)c2ccc(-n3cnnn3)cc2)C1 (stereo unspecified),-0.137
21,Cc1cc2cc(CNC(=O)c3cc4ccccc4o3)ccc2n1C,-0.325
22,O=C(CN1C(=O)CSc2ccccc21)N1CCc2ccccc21,0.0819
23,C/C(=N\NC(=O)c1ccc(Cl)c(S(=O)(=O)Nc2ccccc2Cl)c1)c1ccncc1,-0.516
24,Cc1nc(NC2=NCN(CCCN3CCOCC3)CN2)nc2c(C)cccc12,-0.0726

row,SMILES,z-score
1,N#CC1=C(N)C(C#N)(C#N)[C@H](c2ccsc2)[C@H]2COCC=C12,-2.94
2,Cc1cc(C)c2c(-n3cccc3)c(NC(=O)OC(C)C)sc2n1,0.00557
3,CCOC(=O)c1c(C)c(C(=O)Nc2cc(OC)ccc2OC)c(C)n1CC,-0.853
4,Cc1oc2c(c1C(=O)Nc1cccc(C(=O)O)c1)CCCC2,-1.27
5,CN(C)CCNc1nc(-c2ccccc2)nnc1C(F)(F)F,0.00442
6,O=C(CSc1ncn[nH]1)Nc1ccnc2ccccc12,0.336
7,FC(F)(F)c1nc(Oc2ccccc2)c2ccccc2n1,-0.264
8,O=C(CCn1cccc1)Nc1ccccc1F,0.0734
9,CCN1CCCC1CNC(=O)Cn1cnc2ccc(S(=O)(=O)N3CCC(C)CC3)cc2c1=O (stereo unspecified),-0.269
10,CCOC(=O)Nc1cccc(NC(=O)c2cc(OC)cc(OC)c2)c1,-0.454
11,O=C(CN(Cc1ccccc1)S(=O)(=O)c1ccccc1)N/N=C/c1ccccc1[N+](=O)[O-],-0.136
12,COCCNC(=O)c1cc2c(-c3ccc(Cl)cc3)nn(C)c2s1,-0.509
13,CCOC(=O)N1CCN(C(=O)CNCc2cccs2)CC1,-0.15
14,COc1ccc(OC)c2c1sc(=NC(=O)c1ccco1)n2C,-0.674
15,CSc1nc2ccc3nc(NC(=O)C4COc5ccccc5O4)sc3c2s1 (stereo unspecified),-0.811
16,CC1=NOC(=O)/C1=C\c1ccc(-c2ccc(Cl)cc2Cl)o1,-0.0912
17,COc1ccc(OC)c(NC(=O)CSc2nc3c(c(=O)n(C)c(=O)n3C)n2C)c1,-1.15
18,COc1ccccc1CN1CCN(S(=O)(=O)c2ccccc2)CC1,0.0607
19,CCOC(=O)CSc1nc(N)c2c3c(sc2n1)CCCC3,-1.37
20,O=C(CCN1C(=O)/C(=C/c2ccc(F)cc2)SC1=S)NNC(=O)c1cccnc1,-0.0239
21,COc1ccc2[nH]c(O)c(N=NC(=N)N)c2c1,0.0859
22,Cc1nc([N+](=O)[O-])c(Br)n1CC(=O)c1ccc(Cl)cc1,0.631
23,Cc1cc(SCC(=O)N(C)CC(=O)Nc2ccc(F)cc2)nc2ccccc12,-0.218
24,Nc1c(-c2cccc(Cl)c2)cnn1-c1cccc([N+](=O)[O-])c1,-0.0889

row,SMILES,z-score
1,C=CCNC(=O)c1onc(CSc2ccc(F)cc2)c1C(=O)O,-0.2
2,CN(C)Cc1ccccc1Sc1ccc(Br)cc1,-0.253
3,Cc1nnc(SCC(=O)NCc2ccccc2)n1-c1ccccc1,0.254
4,CC(=O)Nc1ccccc1OCC(=O)NC(C)c1ccccc1 (stereo unspecified),-0.299
5,CCCCN(C(=O)Nc1ccc(Cl)cc1)C1CCN(C(C)=O)CC1,0.0166
6,CCCOc1ccc(C(CC(=O)O)NC(=O)c2ccc3c(c2)OCO3)cc1 (stereo unspecified),-0.509
7,Cc1ccccc1OCC(=O)NC1=NCCS1,0.0476
8,C=CCc1ccc(OCC(O)COc2ccc(CC=C)cc2OC)c(OC)c1,-0.174
9,CCn1c(SCC(=O)NC2CCCCC2C)nnc1-c1ccc(OC)cc1 (stereo unspecified),0.074
10,Cc1c(NS(=O)(=O)CC23CCC(CC2=O)C3(C)C)c(=O)n(-c2ccccc2)n1C (stereo unspecified),-0.269
11,CCCC1CCC(c2ccc(C(N)=O)cc2)CC1 (stereo unspecified),-0.0671
12,Cc1ccc(NC(=S)NCCC(c2ccccc2)c2ccccc2)c(C)c1,0.245
13,CCOc1c2ccc(C(=O)NCCCCc3ccccc3)cc2nn1C,0.0497
14,O=C(O)c1ccc(Sc2nnnn2-c2ccccc2)c([N+](=O)[O-])c1,-0.96
15,COc1ccc(C(=O)O/N=C(/C)c2cccs2)cc1,-0.391
16,Cc1ccc(OCC(=O)c2c(O)c3ccccc3oc2=O)cc1C,0.229
17,Cc1ccc(C(=O)OCC(=O)NCc2ccc3c(c2)OCO3)s1,-0.0586
18,CCOC(=O)c1ccc2[nH]cc(C(C)=O)c(=O)c2c1,-0.0976
19,CNc1nc(NC)nc(-n2c(C(F)(F)F)nc3ccccc32)n1,-0.566
20,Cc1cc(C(=O)CSc2nnc(N)s2)c(C)n1-c1c(C)n(C)n(-c2ccccc2)c1=O,-0.0654
21,Cn1cnnc1SCC(=O)OCN1C(=O)c2ccccc2C1=O,0.794
22,Cc1cccc(NC2(C(F)(F)F)N=C(c3ccccc3)NC2=O)n1 (stereo unspecified),-0.0598
23,CCOC(=O)c1oc2ccc(CNC(C)(C)C)c(Cl)c2c1C,0.563
